Out of some 310,000 compounds screened, about 18,000 (5.8%) were called active. This list was built around the results that the source calls inconclusive (neither active nor inactive); the mix of calls is not that of the screen. Calls come from the whole dose curve; as a rule, active = well fitted inhibition curve with a large enough effect; inconclusive = small, poorly fitted or top-dose-only effect, or another doubt; inactive = no such curve, though single readings can be large or run the other way. No potency is given beside an inconclusive call; the fits are too rough.
Assay: Primary qHTS for delayed death inhibitors of the malarial parasite plastid, 48 hour incubation
Conditions: P. falciparum luciferase growth in erythrocytes; series mostly up to 28.7 µM
How it was run: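 In quantitative HTS format, infected erythrocytes bearing luciferase-reporter parasites were treated for a single generation at 37 C. Luminescence after adding detection reagent served as the growth measure.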
For `CCOC(=O)N1CCN(c2nnc(-c3ccc(C)cc3)c3ccccc23)CC1`, the Potency was inconclusive [inhibitor, partial curve]. With `O=C1C2C(c3ccccc3)(C(=O)N1c1ccc(Cl)cc1)C2(c1ccccc1)c1ccccc1` (stereo not drawn) the Potency was active: 4.15 µM. With `Cc1nc2ncnn2c(C)c1CCC(=O)NCCC1=CCCCC1` the Potency was inconclusive [inhibitor, single point]. For `Cc1ccc(Sc2ncccc2C(=O)O)cc1`, the Potency was “inactive”. For `Cc1cc(C)c2nc(NC(=O)c3ccc4c(=O)n5c(nc4c3)CCCCC5)sc2c1`, the Potency was “inactive”. With `CC(Sc1n[nH]c(-c2ccccc2F)n1)C(=O)Nc1ccc(S(N)(=O)=O)cc1` (stereo not drawn) the Potency was inconclusive [inhibitor, single point]. With `CC(=O)Nc1cccc(NC(=O)CSc2ncc(-c3ccc(Cl)cc3)n2Cc2ccco2)c1` the Potency was inconclusive [inhibitor, single point]. For `CCCNC(=O)COc1cccc(C(=O)NCc2ccccc2)c1`, the Potency was inconclusive [inhibitor, partial curve, poor fit]. In the case of `CCN1C(=O)[C@H]2[C@@H](c3ccc(-c4ccc(F)cc4)cc3)N[C@@](Cc3ccccc3)(C(=O)OC)[C@H]2C1=O`, the Potency is reported as active: 4.65 µM. In the case of `Cc1ccccc1OCC(O)Cn1c(=N)n(Cc2ccccc2)c2ccccc21` (stereo not drawn), the Potency is reported as inconclusive [inhibitor, full curve]. For `C[C@]12C(=O)N(c3cccc(F)c3)C(=O)N1[C@@H]1c3ccccc3OC[C@@H]1[C@H]2c1ccccc1`, the Potency was inconclusive [inhibitor, full curve, poor fit]. With `NC(=O)C1CCN(c2nc(-c3cccc4ccccc34)cs2)CC1` the Potency was inconclusive [inhibitor, single point]. In the case of `C/C(N)=C(/C#N)C(=O)COC(=O)C1CSC2(c3ccc(F)cc3)CCC(=O)N12` (stereo not drawn), the Potency is reported as “inactive”. For `COc1ccc(C2N(C(=O)CN3CCCC3)CCCN2S(=O)(=O)c2ccccc2)cc1` (stereo not drawn), the Potency was active: 5.22 µM. With `Cc1cc(OC(C)C(=O)NCCN2CCOCC2)c2c(C)c(C)c(=O)oc2c1` (stereo not drawn) the Potency was “inactive”. For `O=C1c2ccccc2NC2(CCCCC2)N1c1ccc(O)cc1`, the Potency was “inactive”. For `CC(C)C(=O)Nc1ccc2c(c1)nc(CCN1CCCCC1)n2C`, the Potency was “inactive”. In the case of `COC(=O)c1cccc(C(=O)N2CCCC(Nc3ccc(C)c(C)c3)C2)c1` (stereo not drawn), the Potency is reported as “inactive”. For `Cc1ccc2c(C)c(C(=O)N(Cc3ccc(F)cc3)C3CCS(=O)(=O)C3)oc2c1` (stereo not drawn), the Potency was “inactive”. For `CCNc1oc(COc2cccc(C)c2)nc1C#N`, the Potency was “inactive”. For `O=C1c2ccccc2C(=O)N1CC(O)CNc1ccc(Br)cc1` (stereo not drawn), the Potency was “inactive”. With `COc1ccc(CCN(C(=O)c2snc(C(N)=O)c2N)C(C(=O)NCC2CCCO2)c2ccc(F)cc2)cc1OC` (stereo not drawn) the Potency was inconclusive [inhibitor, partial curve]. For `CC[N+](CC)(CC#Cc1ccccc1)CC(=O)c1ccc(Cl)cc1`, the Potency was inconclusive [inhibitor, single point]. In the case of `O=C(CCc1ccccc1)NCc1ccncc1`, the Potency is reported as “inactive”. For `Cc1ccc(S(=O)(=O)N2CCOCC2)cc1NC(=O)CN1CCC(Cc2ccccc2)CC1`, the Potency was active: 13.1 µM. For `CS(=O)(=O)N1CCN(c2ccccc2NC(=O)c2ccc(-c3ccc(Cl)cc3Cl)o2)CC1`, the Potency was active: 11.7 µM. In the case of `Oc1ccc2ccc3[nH]cnc3c2c1`, the Potency is reported as inconclusive [inhibitor, full curve, poor fit]. In the case of `O=C(NCc1ccccn1)c1ccc2c(c1)N(Cc1ccccc1)CCS2`, the Potency is reported as inconclusive [inhibitor, single point]. In the case of `COc1ccc(NC(=O)c2ccc(Cl)nc2)cc1S(=O)(=O)N1CCOCC1`, the Potency is reported as inconclusive [inhibitor, single point]. With `CCOC(=O)C1=C(C)Nc2ccccc2N=C1NC(=O)c1cccc(S(=O)(=O)NCc2ccccc2)c1` the Potency was inconclusive [inhibitor, single point]. For `COc1ccc(C(=O)COC(=O)CCn2nnc(-c3cccc(O)c3OC)n2)cc1`, the Potency was “inactive”. In the case of `CC(=O)N1c2ccc(Cl)cc2C2OCCC2C1c1ccco1` (stereo not drawn), the Potency is reported as inconclusive [inhibitor, partial curve, poor fit]. With `Cc1ccnc(NS(=O)(=O)c2cccc([N+](=O)[O-])c2)c1` the Potency was “inactive”. With `COc1cccc(CNC(=O)c2cccc(Br)c2)c1` the Potency was inconclusive [inhibitor, single point]. With `O=C1C(NS(=O)(=O)c2cccs2)=C(N2CCN(c3cccc(C(F)(F)F)c3)CC2)C(=O)c2ccccc21` the Potency was inconclusive [inhibitor, full curve]. For `CCn1c(CC(=O)Nc2ccccc2C)nnc1SCC(=O)NC1=NCCS1`, the Potency was “inactive”. With `C=CCc1c(C)[nH]c2c(OC)cccc2c1=S` the Potency was inconclusive [inhibitor, single point]. In the case of `CCOc1cc(C(=O)N2CCC3(CC2)OCCO3)cc(OCC)c1OCC`, the Potency is reported as “inactive”. In the case of `O=S(=O)(c1cccc(F)c1)N1CCN(C(=S)NCC2CCCO2)CC1` (stereo not drawn), the Potency is reported as inconclusive [inhibitor, single point]. With `CC(=O)C1C2c3ccccc3O[C@@]1(C)N=c1s/c(=C/c3ccoc3)c(=O)n12` (stereo partly drawn) the Potency was inconclusive [inhibitor, single point]. For `COc1ccc(/C=C(/NC(=O)c2ccc(Br)cc2)C(=O)N2CCOCC2)cc1`, the Potency was inconclusive [inhibitor, partial curve, poor fit]. With `CC(=O)N1CCc2cc(S(=O)(=O)NC(C)c3ccccc3)ccc21` (stereo not drawn) the Potency was “inactive”. With `Cc1nc(N2CCN(c3ccccn3)CC2)c2c(C)c(C(=O)Nc3ccc(Cl)cc3)sc2n1` the Potency was inconclusive [inhibitor, partial curve]. In the case of `Cc1cc(N2CCN(c3ccccc3)CC2)nc(-n2nc(C)cc2C)n1`, the Potency is reported as active: 3.7 µM. For `CCOC(=O)C1=C(N)OC2=C(C(=O)CC(C)(C)C2)C1c1ccc(C)s1` (stereo not drawn), the Potency was “inactive”. For `CCn1nc(C)cc1C(=O)N1CCCC(C(=O)c2ccc(Oc3ccccc3)cc2)C1` (stereo not drawn), the Potency was inconclusive [inhibitor, partial curve, poor fit]. For `O=C(COc1ccccc1Cl)Nc1cccc(S(=O)(=O)N2CCCC2)c1`, the Potency was inconclusive [inhibitor, single point]. For `COc1cc(C(=O)N/C(=C\c2cn(S(=O)(=O)N(C)C)c3ccccc23)C(=O)NCCCO)cc(OC)c1OC`, the Potency was inconclusive [inhibitor, single point]. For `CN1C(=O)c2ccc(NC(=O)c3c(F)c(F)c(F)c(F)c3F)cc2C1=O`, the Potency was inconclusive [inhibitor, partial curve]. In the case of `COCCNC(=O)c1ccc(S(=O)(=O)N2CCCc3ccccc32)cc1`, the Potency is reported as “inactive”. In the case of `COc1ccc(OC/C(O)=C(\C#N)c2nc3ccccc3[nH]2)cc1`, the Potency is reported as “inactive”. With `CCOC(=O)C1Cn2c(nc3c(c2=O)C(C)(CC)Cc2ccccc2-3)S1` (stereo not drawn) the Potency was inconclusive [inhibitor, partial curve]. For `CCOC(=O)N1CCN(C(=O)COc2ccc3c(c2)C(=O)CC(C)(C)O3)CC1`, the Potency was inconclusive [inhibitor, partial curve]. In the case of `COc1ccc(NS(=O)(=O)c2ccc(N/N=C/c3ccc(N4CCOCC4)cc3)c([N+](=O)[O-])c2)cc1`, the Potency is reported as inconclusive [inhibitor, single point]. In the case of `Cn1c(O)c(N=NC(=O)CNC(=O)c2ccco2)c2ccccc21`, the Potency is reported as “inactive”. With `CC1C/C(=C/c2ccccn2)C(=O)/C(=C/c2ccccn2)C1` (stereo not drawn) the Potency was active: 2.62 µM. In the case of `CCc1nc2nc(C)c(NS(=O)(=O)c3ccc(Cl)s3)c(=O)n2[nH]1`, the Potency is reported as inconclusive [inhibitor, single point]. In the case of `COc1ccc(C)cc1N(CC(=O)NCCSCc1cccc(Cl)c1)S(C)(=O)=O`, the Potency is reported as “inactive”. For `COc1ccc(C(=O)N/N=C(\N)c2cc3ccccc3oc2=O)cc1`, the Potency was “inactive”. With `COc1cccc(-c2noc(CCC(=O)Nc3cccnc3)n2)c1` the Potency was “inactive”. With `N#CC1=C(N)SC(N)=C(C#N)C1c1cccc(Oc2ccccc2)c1` the Potency was inconclusive [inhibitor, single point]. For `O=C(CSC(=S)N1CCSCC1)c1ccccc1`, the Potency was “inactive”. For `O=c1[nH]c(O)c(C=Nc2ccc(F)c(Cl)c2)c(=O)[nH]1`, the Potency was “inactive”. With `COc1ccc(CNC(=O)CSc2nc3[nH]ncc3c(=O)n2-c2ccccc2Br)cc1` the Potency was inconclusive [inhibitor, partial curve, poor fit]. In the case of `Cc1ccc(S(=O)(=O)N2CCCCC2)cc1NC(=O)CSc1nncn1-c1ccccc1`, the Potency is reported as inconclusive [inhibitor, single point]. With `Cc1ccc(C)c(N2CCN(C(=O)CCCn3c(=S)[nH]c4cc5c(cc4c3=O)OCO5)CC2)c1` the Potency was active: 11.7 µM. For `Cc1onc(-c2ccccc2Cl)c1NC(=O)NCc1cccs1`, the Potency was inconclusive [inhibitor, partial curve, poor fit]. For `O=C(O)c1ccc(NCc2nc3ccccc3n2CCOc2ccccc2Cl)cc1`, the Potency was inconclusive [inhibitor, partial curve, poor fit]. With `Cc1nc(SCC(=O)Nc2ccccc2Cl)c2c(C)c(C)sc2n1` the Potency was active: 5.22 µM. With `Cc1ccc(Nc2nc(CSc3nnc(-c4cccs4)o3)cs2)cc1` the Potency was “inactive”. With `COc1ccc(C(=O)C2CCCN(Cc3ccc4nonc4c3)C2)c(C)c1` (stereo not drawn) the Potency was “inactive”. For `CCOC(=O)c1ccc(NC(=O)CCOc2ccc(C)cc2)cc1`, the Potency was “inactive”. With `OC(Cn1c2ccccc2c2ccccc21)C[n+]1cccc2ccccc21` (stereo not drawn) the Potency was active: 6.57 µM.

From PubChem BioAssay AID504832 (National Center for Advancing Translational Sciences (NCATS), 2011)
Potency is the fitted concentration of half-maximal effect; tags give direction and shape of the fitted curve.
